# Data reported in PubChem BioAssay AID1159614 (National Center for Advancing Translational Sciences (NCATS), 2016).
# The whole screen tested about 45,000 compounds, of which about 65 (0.1%) were called active. Calls follow the shape of the dose curve; as a rule, active = well fitted activation curve with a large enough effect; inconclusive = small, poorly fitted or top-dose-only effect; inactive = no such curve, though single readings can be large or run the other way. The list shows a part of the results.
# Molecular target: Galactocerebrosidase (Homo sapiens) (UniProt P54803)
# Chain of UniProt P54803 (P54803 whole entry, looked up): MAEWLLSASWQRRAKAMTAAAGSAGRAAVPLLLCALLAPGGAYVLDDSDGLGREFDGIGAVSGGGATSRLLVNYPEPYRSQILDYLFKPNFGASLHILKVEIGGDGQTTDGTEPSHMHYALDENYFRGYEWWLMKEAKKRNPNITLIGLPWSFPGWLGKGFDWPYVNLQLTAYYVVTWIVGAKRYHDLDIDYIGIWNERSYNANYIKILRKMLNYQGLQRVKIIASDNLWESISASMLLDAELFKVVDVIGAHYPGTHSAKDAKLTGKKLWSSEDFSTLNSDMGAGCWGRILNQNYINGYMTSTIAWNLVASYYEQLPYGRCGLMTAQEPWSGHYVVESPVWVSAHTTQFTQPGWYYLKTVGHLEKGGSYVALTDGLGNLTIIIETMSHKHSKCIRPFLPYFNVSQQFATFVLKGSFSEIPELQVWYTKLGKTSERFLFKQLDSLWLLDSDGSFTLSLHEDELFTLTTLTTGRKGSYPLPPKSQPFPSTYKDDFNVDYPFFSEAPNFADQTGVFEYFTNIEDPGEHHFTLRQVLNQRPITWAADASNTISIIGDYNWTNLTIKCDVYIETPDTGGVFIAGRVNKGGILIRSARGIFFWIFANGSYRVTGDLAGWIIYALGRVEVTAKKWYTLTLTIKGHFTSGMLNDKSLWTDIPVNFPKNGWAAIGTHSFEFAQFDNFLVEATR
# Experiment: A Novel Cell-Based Assay to Identify Small Molecules for B -Galactocerebrosidase; also: nearly all actives have a fitted effect of over 65% in size; as to activation: 0% is about no effect
# Details: 145M-Twi-hGALC-G270D cells (Twitcher mouse brain line with human GALC G270D), HMU-beta-Gal fluorescence, 48 h; series mostly up to 57.5 µM; activation: at the top concentration
# In short: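 Brain-derived Twitcher mouse 145M-Twi cells stably expressing human GALC-G270D or wild-type GALC, treated live, then residual GALC activity read by fluorescence of HMU-b-Gal substrate (0.1 mM final) in citrate-phosphate buffer pH 5.2 with sodium taurocholate. Signal increase indicates enhancement.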
# Potency is read from the fitted curve at half-maximal effect.
Compound,activation,Potency
Cc1cccc(N2CCN(C(=O)Cc3c(C(=O)O)c(C)cn3C)CC2C)c1 (centres undefined),inactive: 0.0163%,–
CN(Cc1ccccc1)C(=O)c1ccc(CSc2nc3cccnc3n2Cc2ccccc2)cc1,inactive: -21.3%,–
COc1ccc(NC(=O)Cn2c(=O)oc3cc(S(=O)(=O)N4CCCC4)ccc32)cc1OC,inactive: -24.2%,–
COc1ccc(CCNC(=O)c2ccc3nc(CCc4ccccc4)oc3c2)cc1OC,inactive: -6.94%,–
Cc1cccc(CSc2nc3ccncc3n2CC(=O)N(C)C2CCCCC2)c1,inactive: -18.8%,–
CCCS(=O)(=O)Nc1cccc(-c2cn3ccsc3n2)c1,inactive: -9.12%,–
COc1ccc(NC(=O)Cn2cnc3c(nc4n3CCCCC4)c2=O)cc1Cl,inactive: -17%,–
COc1ccc(OC)c(NC(=O)c2nnn(CC(=O)Nc3ccc(C(C)C)cc3)c2N)c1,inactive: -21.2%,–
CCCCc1cc2ccccc2c(OCCN(C)C)n1,inactive: -3.42%,–
CCc1cccc(NC(=O)CCn2nc(C)cc2C)c1,inactive: -11.3%,–
COc1ccccc1CCNC(=O)C1(c2cccs2)CCOCC1,inactive: -5.72%,–
COc1ccc(C2CC(=O)Nc3c2c(C)nn3-c2nc(C)cc(C)n2)c(OC)c1OC (centres undefined),inactive: -7.31%,–
COC(=O)c1c(NC(=O)COc2ccc(C(C)C)cc2)sc2c1CCCC2,inactive: -14.6%,–
CCC(=O)NCCc1sc2nc(-c3ccc(OC)cc3)nn2c1C,inactive: -9.56%,–
CCC1CCCCN1CCCNC(=O)c1ccc2c(c1)N(Cc1cccc(Cl)c1)C(=O)c1ccccc1S2(=O)=O (centres undefined),inactive: -5.11%,–
CC(=O)c1ccc(NC(=O)c2sc(-n3nc(C)c(Cc4ccc5c(c4)OCO5)c3C)nc2C)cc1,inactive: -7.25%,–
COc1cccc(CNCc2c(C(=O)O)n(Cc3ccc(C)cc3)c3cc(C)ccc23)c1OC,inactive: -0.257%,–
O=C(Nc1ccc2oc(-c3ccc(Br)cc3)nc2c1)c1cc2ccccc2o1,inactive: -11.8%,–
O=c1oc2c(CN3CCOCC3)c(O)ccc2cc1-c1ccccc1,–,active: 25.1 µM
COc1ccc(N2CCN(C(=O)c3noc4c3CCCCC4)CC2)cc1,inactive: -2.11%,–
Cc1ccc(N2C(=O)CSC23C(=O)N(CC(=O)NCCc2ccccc2)c2ccccc23)cc1 (centres undefined),inactive: -3.65%,–
CCC1CN(C(=O)N2CCC(C(=O)NCc3cccs3)CC2)c2ccccc2O1 (centres undefined),inactive: -16.4%,–
Cc1ccc(NC(=O)c2ccc(-c3ccccc3)s2)cc1,inactive: -14.7%,–
COc1ccc(CCNC(=O)c2cnc3sc(N4CCCCCC4)nn3c2=O)cc1,inactive: -12%,–
Cc1ccc(C(=O)OCc2cc(=O)n3nc(CC(C)C)sc3n2)cc1,inactive: -0.782%,–

Compound,activation,Potency
CC(C(=O)O)c1ccc2c(c1)[nH]c1ccc(Cl)cc12 (centres undefined),inactive: -21.8%,–
CCOC(=O)c1ccccc1NC(=O)c1sc2nc(-c3ccc(F)cc3)cn2c1C,inactive: -13.4%,–
O=C(NCCc1nc2ccccc2n1Cc1ccc(Cl)cc1)c1ccccc1,inactive: -2.71%,–
COc1ccc(-c2nc3ccccc3o2)cc1NC(=O)c1cc(Br)ccc1OC,inactive: -5.9%,–
COc1ccc(C)cc1NC(=O)NCCn1nnc2cc(S(=O)(=O)N(C)C)ccc21,inactive: -7.21%,–
Cc1nnc(NC(=O)CSc2nc3c([nH]c4ccccc43)c(=O)n2-c2cccc(Cl)c2)s1,inactive: -19.4%,–
Cc1cc(C)cc(NCc2nnc3n2CCCCC3)c1,inactive: -12.8%,–
CCCN(C(=O)c1ccc2c(=O)n3c(nc2c1)CCCCC3)c1cccc(Cl)c1,inactive: -1.26%,–
Cc1ccc2occ(CC(=O)Nc3c(C)cccc3C)c2c1,inactive: -27.1%,–
O=C(CCNS(=O)(=O)c1ccc2c(c1)CCN2C(=O)C1CC1)Nc1ccc(Cl)cc1,inactive: -32.5%,–
CC(=O)N1CCc2cc(Br)cc(S(=O)(=O)CCC(=O)NCc3ccc(F)cc3)c21,inactive: -9.9%,–
COc1ccccc1CN1CCC(CNC(=O)c2cnn(-c3cccc(Cl)c3)c2C2CCN(C(=O)OC(C)(C)C)CC2)CC1,inactive: -20.3%,–
COc1ccc(OCC(=O)N2CCN(C(=O)c3ccc(OC)c(OC)c3)CC2)cc1,inactive: -15.8%,–
COc1cn(CC(=O)Nc2ccc(C)cc2)c(CN2CCCCC2)cc1=O,inactive: -6.82%,–
Cc1cccc(C)c1NC(=O)CCSCCc1ccccn1,inactive: -8.02%,–
COc1ccc(NC(=O)CN2C(=O)COc3ccc(S(=O)(=O)NC4CCCC4)cc32)cc1OC,inactive: 3.83%,–
Cc1cc2c(cc1S(=O)(=O)NCc1ccc(F)cc1)OCC(=O)N2,inactive: -11.3%,–
CCC(C(=O)NC(=O)NC(C)=O)c1ccccc1 (centres undefined),inactive: -11.7%,–
CCOC(=O)c1cc2c(=O)n3ccccc3nc2n(CCOC)c1=NC(=O)c1c(-c2c(F)cccc2Cl)noc1C,inactive: 17.1%,–
CSc1ccc(CCNC(=O)Cn2ncc3c([nH]c4ccccc43)c2=O)cc1,inactive: 4.7%,–
O=C(c1ccccc1)n1nc(-c2ccc(Cl)cc2)nc1NCc1ccco1,inactive: 10.9%,–
CCc1cccc(NC(=O)Cn2nc(C)c3sc4ccccc4c3c2=O)c1,inactive: -11.1%,–
Cc1ccc(C)c(CN2C(=O)CSc3ccc(C(=O)NCc4ccccc4)cc32)c1,inactive: -10.3%,–
COc1ccc(Cn2c(=O)c3ccccc3n3c(-c4ccc(C)cc4)nnc23)cc1,inactive: -15.3%,–
